Test [1] addresses T1, retinoic acid-inducible gene-I protein (RIG-I), endogenous (human (endogenous in HepG2)) (UniProt O95786).
T1 sequence: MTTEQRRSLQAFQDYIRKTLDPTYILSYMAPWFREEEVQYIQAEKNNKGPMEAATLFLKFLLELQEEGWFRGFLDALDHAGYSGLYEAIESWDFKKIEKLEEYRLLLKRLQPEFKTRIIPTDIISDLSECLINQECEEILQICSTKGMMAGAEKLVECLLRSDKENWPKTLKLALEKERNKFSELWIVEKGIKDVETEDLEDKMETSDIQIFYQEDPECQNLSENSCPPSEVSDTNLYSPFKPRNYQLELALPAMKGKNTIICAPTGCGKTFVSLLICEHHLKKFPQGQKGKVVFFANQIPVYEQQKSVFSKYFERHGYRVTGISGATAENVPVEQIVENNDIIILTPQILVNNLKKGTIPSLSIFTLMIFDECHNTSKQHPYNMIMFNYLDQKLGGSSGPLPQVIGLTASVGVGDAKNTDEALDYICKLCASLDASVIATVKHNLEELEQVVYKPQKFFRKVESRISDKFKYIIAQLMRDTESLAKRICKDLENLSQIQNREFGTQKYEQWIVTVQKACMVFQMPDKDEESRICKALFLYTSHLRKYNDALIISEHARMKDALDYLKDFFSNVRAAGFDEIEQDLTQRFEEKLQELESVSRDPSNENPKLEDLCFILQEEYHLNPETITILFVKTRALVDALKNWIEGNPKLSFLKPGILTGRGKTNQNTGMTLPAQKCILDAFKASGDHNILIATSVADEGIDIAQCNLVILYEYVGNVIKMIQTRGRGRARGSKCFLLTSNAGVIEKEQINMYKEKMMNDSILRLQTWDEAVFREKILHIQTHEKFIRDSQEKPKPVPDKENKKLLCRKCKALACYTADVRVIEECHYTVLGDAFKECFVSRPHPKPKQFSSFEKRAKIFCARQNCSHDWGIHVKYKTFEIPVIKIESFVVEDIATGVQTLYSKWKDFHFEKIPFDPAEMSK
The test is described as follows: co-IP; HepG2 lysate; IP with anti-RIG-I or IgG antibodies; endogenous RIG-I and USP15 detected by WB.

Chains of the proteins cited; added tags and fusions are not shown.
UniProt Q7Z434: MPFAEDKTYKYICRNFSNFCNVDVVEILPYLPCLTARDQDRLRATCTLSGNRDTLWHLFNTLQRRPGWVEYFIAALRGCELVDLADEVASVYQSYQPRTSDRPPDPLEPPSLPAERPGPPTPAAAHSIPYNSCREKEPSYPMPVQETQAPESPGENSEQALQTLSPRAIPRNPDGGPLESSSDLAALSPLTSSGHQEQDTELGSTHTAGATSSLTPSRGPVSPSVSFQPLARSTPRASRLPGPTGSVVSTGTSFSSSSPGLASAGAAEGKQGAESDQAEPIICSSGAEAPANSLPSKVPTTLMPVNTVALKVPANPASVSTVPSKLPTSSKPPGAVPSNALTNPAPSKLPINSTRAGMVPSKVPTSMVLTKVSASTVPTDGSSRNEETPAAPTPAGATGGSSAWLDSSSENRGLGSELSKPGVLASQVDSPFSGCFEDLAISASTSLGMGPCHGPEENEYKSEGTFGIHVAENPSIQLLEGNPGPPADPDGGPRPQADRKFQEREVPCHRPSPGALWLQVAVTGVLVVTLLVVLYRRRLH

Test [2] has as its target T2, Flag-tagged IRF3 (interferon regulatory factor 3) (UniProt Q14653).
T2 sequence: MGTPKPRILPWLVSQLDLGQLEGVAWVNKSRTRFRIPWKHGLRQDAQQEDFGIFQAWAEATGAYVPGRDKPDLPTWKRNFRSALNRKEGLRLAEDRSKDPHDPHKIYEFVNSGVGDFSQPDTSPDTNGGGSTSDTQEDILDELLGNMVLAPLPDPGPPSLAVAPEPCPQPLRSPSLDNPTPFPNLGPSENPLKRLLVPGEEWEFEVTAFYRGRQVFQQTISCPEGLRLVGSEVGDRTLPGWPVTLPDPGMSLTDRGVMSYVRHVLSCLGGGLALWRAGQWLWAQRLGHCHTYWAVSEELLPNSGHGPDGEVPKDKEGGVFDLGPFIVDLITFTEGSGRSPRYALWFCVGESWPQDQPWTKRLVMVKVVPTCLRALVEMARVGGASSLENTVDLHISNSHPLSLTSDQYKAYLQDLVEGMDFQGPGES
The test is described as follows: co-IP; Flag-tagged bait transfected into HepG2 cells for 48 h; whole-cell lysates, IP with anti-Flag or IgG antibodies; endogenous USP15 blotted with anti-USP15.

In test [3] the target is Flag-tagged MAVS (mitochondrial antiviral-signaling protein) (UniProt Q7Z434). Described as above.
Test [4] has as its target T3, Flag-tagged MDA5 (melanoma differentiation-associated protein 5) (UniProt Q9BYX4).
T3 sequence: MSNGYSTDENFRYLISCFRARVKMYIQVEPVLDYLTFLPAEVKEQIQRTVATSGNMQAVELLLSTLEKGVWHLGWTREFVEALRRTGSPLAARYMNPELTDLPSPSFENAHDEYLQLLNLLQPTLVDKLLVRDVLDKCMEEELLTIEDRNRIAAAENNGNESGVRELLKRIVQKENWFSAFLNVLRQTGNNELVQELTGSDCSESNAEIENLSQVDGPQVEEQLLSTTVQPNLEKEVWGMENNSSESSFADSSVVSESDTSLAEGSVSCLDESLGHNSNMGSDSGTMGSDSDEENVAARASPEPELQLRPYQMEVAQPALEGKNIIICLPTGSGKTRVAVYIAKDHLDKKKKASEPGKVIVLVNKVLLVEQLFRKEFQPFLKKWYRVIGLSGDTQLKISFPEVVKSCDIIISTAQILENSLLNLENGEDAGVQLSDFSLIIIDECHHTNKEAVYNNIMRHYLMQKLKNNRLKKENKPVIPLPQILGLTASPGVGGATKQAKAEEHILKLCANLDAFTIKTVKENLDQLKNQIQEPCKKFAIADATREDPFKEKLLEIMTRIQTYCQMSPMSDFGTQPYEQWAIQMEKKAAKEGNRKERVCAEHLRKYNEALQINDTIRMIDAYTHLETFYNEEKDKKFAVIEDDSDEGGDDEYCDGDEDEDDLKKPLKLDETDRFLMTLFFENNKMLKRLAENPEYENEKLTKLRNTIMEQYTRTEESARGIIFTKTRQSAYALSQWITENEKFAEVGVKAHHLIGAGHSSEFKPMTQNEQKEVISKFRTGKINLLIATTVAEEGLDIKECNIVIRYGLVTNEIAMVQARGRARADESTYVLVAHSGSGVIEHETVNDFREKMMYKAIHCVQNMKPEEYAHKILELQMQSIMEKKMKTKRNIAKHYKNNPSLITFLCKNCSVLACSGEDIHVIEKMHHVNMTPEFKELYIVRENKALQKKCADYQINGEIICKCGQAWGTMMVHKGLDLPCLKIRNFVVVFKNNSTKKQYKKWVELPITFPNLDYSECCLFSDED
The test is described as above.

Test [5] deals with T4, Flag-tagged RIG-I (in HepG2) (UniProt O95786).
T4 sequence: T1 sequence
Described as above.

Test [6] addresses T5, Flag-tagged TBK1 (TANK-binding kinase 1), Q9UHD2.
T5 chain: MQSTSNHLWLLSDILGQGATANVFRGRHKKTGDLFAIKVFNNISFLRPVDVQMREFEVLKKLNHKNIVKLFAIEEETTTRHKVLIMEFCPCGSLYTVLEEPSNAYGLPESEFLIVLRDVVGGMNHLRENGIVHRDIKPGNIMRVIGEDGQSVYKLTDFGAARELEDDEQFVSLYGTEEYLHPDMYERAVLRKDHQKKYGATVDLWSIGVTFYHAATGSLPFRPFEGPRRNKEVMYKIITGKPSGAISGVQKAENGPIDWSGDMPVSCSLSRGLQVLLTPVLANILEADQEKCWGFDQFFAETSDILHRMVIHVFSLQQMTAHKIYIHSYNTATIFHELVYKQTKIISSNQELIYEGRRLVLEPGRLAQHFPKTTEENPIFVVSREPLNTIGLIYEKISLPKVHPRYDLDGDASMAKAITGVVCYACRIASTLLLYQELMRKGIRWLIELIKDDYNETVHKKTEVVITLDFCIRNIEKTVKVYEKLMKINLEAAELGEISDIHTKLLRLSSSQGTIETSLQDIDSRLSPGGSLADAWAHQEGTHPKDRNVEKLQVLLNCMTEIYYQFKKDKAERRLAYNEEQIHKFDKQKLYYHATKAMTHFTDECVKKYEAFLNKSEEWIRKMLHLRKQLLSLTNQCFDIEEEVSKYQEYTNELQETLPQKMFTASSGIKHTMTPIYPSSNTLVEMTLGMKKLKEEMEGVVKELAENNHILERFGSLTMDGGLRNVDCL
The description is as above. As to conditions: remark: other sources report otherwise.

The text below walks through data of article PMC10783007.

Results are given in words; binding and its absence hold for the method and conditions named. Binding seen in cells or lysates may run through a third protein. Some entries that bind do so weakly or less than the wild type. For part of these data: Sequences can lack the tags named with a protein.

B1: USP15 (endogenous) (enzyme, UniProt Q9Y4E8 1-981)
chain: MAEGGAADLDTQRSDIATLLKTSLRKGDTWYLVDSRWFKQWKKYVGFDSWDKYQMGDQNVYPGPIDNSGLLKDGDAQSLKEHLIDELDYILLPTEGWNKLVSWYTLMEGQEPIARKVVEQGMFVKHCKVEVYLTELKLCENGNMNNVVTRRFSKADTIDTIEKEIRKIFSIPDEKETRLWNKYMSNTFEPLNKPDSTIQDAGLYQGQVLVIEQKNEDGTWPRGPSTPKSPGASNFSTLPKISPSSLSNNYNNMNNRNVKNSNYCLPSYTAYKNYDYSEPGRNNEQPGLCGLSNLGNTCFMNSAIQCLSNTPPLTEYFLNDKYQEELNFDNPLGMRGEIAKSYAELIKQMWSGKFSYVTPRAFKTQVGRFAPQFSGYQQQDCQELLAFLLDGLHEDLNRIRKKPYIQLKDADGRPDKVVAEEAWENHLKRNDSIIVDIFHGLFKSTLVCPECAKISVTFDPFCYLTLPLPMKKERTLEVYLVRMDPLTKPMQYKVVVPKIGNILDLCTALSALSGIPADKMIVTDIYNHRFHRIFAMDENLSSIMERDDIYVFEININRTEDTEHVIIPVCLREKFRHSSYTHHTGSSLFGQPFLMAVPRNNTEDKLYNLLLLRMCRYVKISTETEETEGSLHCCKDQNINGNGPNGIHEEGSPSEMETDEPDDESSQDQELPSENENSQSEDSVGGDNDSENGLCTEDTCKGQLTGHKKRLFTFQFNNLGNTDINYIKDDTRHIRFDDRQLRLDERSFLALDWDPDLKKRYFDENAAEDFEKHESVEYKPPKKPFVKLKDCIELFTTKEKLGAEDPWYCPNCKEHQQATKKLDLWSLPPVLVVHLKRFSYSRYMRDKLDTLVDFPINDLDMSEFLINPNAGPCRYNLIAVSNHYGGMGGGHYTAFAKNKDDGKWYYFDDSSVSTASEDQIVSKAAYVLFYQRQDTFSGTGFFPLDRETKGASAATGIPLESDEDSNDNDNDIENENCMHTN
Regarding B1, the binding result was “binds” in test [1]; “no binding” in test [2]; “no binding” in test [3]; “no binding” in test [4]; “binds” in test [5].

B2: USP15 (endogenous), Q9Y4E8 1-981 (enzyme)
chain: B1 chain
On to B2, for which the binding result in test [6] is reported as “no binding”.
